Results published in PubChem BioAssay AID1346428 (National Center for Advancing Translational Sciences (NCATS), 2018).
Hit rate of the full screen: of about 48,000 compounds, about 1,200 (2.5%) were called active. Roughly 2% stayed inconclusive and do not appear here.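 How the source made its calls: active means activation of at least 60% and not above a set upper limit (about 1 call in 100 departs from these limits); inconclusive means activation of 40% to 60%, or above that upper limit; inactive means activation under 40%.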 Some of the results follow.

Target: Probable G-protein coupled receptor 32 (Homo sapiens) (UniProt O75388)
Chain of UniProt O75388 (O75388 whole entry, looked up): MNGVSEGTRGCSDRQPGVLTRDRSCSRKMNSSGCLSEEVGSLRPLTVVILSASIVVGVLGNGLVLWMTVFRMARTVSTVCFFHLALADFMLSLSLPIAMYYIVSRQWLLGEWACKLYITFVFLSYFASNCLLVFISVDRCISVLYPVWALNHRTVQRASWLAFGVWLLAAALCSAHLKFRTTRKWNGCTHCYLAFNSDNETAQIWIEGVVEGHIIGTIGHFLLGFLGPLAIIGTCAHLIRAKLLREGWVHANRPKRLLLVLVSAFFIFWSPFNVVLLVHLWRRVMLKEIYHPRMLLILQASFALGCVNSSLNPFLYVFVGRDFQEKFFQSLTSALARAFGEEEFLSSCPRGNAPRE
Experiment: qHTS for Agonists of Human Resolvin D1 Receptor DRV1; further: 0% is about no effect
Conditions: CHO-K1 GPR32 beta-arrestin PathHunter luminescence, 90 min; at 76.9 µM; active compounds read high; zero percent set by DMSO-only wells
Procedure, shortened: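 Agonism was scored by beta-Gal fragment complementation (chemiluminescent read, 1 h detection at ambient temperature) reporting beta-arrestin binding to GPR32 in engineered CHO-K1 cells. Compound treatment lasted 90 min at 37 C, normalized to a DMSO basal control.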

activation, inactive:
CCOC(=O)Cc1ccc(NC(=O)N2CC(C)Oc3ccc(Cl)cc32)cc1 (centres undefined) -28%
COc1cc2nc(NCc3ccccc3)n3nc(-c4ccccc4)nc3c2cc1OC -0.752%
CCOC(=O)c1cc(-c2ccccc2)n(-c2cccc(C(=O)N(C)c3ccc(C)cc3)c2)c1C -34.2%
Fc1ccc(N2CCN(Cc3cccn3-c3nnc(N4CCN(C5CCCCC5)CC4)s3)CC2)cc1 -5.98%
CCc1ccc(-c2nc(CSCC(=O)N3CCN(c4ccc(F)cc4)CC3)c(C)o2)cc1 -11%
Cc1ccc(NC(=O)C2CCCN(c3cnccn3)C2)c(C)c1 (centres undefined) -3.52%
Nc1ncnc2nc[nH]c12 -55.6%
CCc1ccccc1NC(=O)c1cc2c(Cl)nc3ccccc3c2s1 -7.14%
CCOC(=O)c1ccc(NC2=CC(c3ccc(F)cc3)N(c3ccc(C(=O)OCC)cc3)C2=O)cc1 (centres undefined) -3.51%
CCOc1ccccc1NC(=O)c1cc2c(=O)n(Cc3cccnc3)ccc2nc1C -2.63%
CCCOc1cccc(C(=O)Nc2ccc(-c3cc4ccccc4oc3=O)c(C)c2)c1 -7.83%
Cc1cccc(C)c1NC(=O)CCS(=O)(=O)c1cccc2nonc12 30.1%
Cc1c(NC(=O)c2ccc(Br)o2)cccc1-c1nc2ccccc2o1 9.73%
CCOC(=O)c1c(C)[nH]c(C)c1S(=O)(=O)N1CCC(C(=O)Nc2ccc(C)c(Cl)c2)CC1 9.72%
CC(=O)Nc1ccc(Nc2ncnc3c2c(-c2ccccc2)cn3-c2ccc(C)c(Cl)c2)cc1 -24.5%
CCCSc1nc2sc3c(c2c(=O)n1-c1cccc(Br)c1)CC(C)(C)OC3 -10.3%
Cc1ccccc1Cn1c(SCc2ccc(C(=O)NC3CCCC3)cc2)nc2ccncc21 3.65%
C=CCN1CCc2cc(O)c(O)cc2C(c2ccccc2)C1 (centres undefined) -2.48%
Cc1nc2c(c(C)nn2-c2ccccc2)c(C)c1CCC(=O)NCCc1ccc(Cl)cc1 -14.5%
COc1cccc(NC(=O)N2CCN(C(=O)c3nsc4ccccc34)CC2)c1 -21.8%
COc1ccccc1CNC(=O)CCNS(=O)(=O)c1cccc2nsnc12 -0.209%
COc1ccccc1N=c1scc(-c2ccc(S(=O)(=O)N3CCCC3)cc2)n1C 45.6%
COc1cc(C2NC(=O)c3c(sc4c3CCN(C)C4)N2)ccc1OC(=O)c1ccccc1 (centres undefined) -7.68%
COc1ccc(NC(=O)N2CCN3CCCCC3C2)cc1OC (centres undefined) -1.68%
COc1ccc(C(=O)Nc2ccccc2-c2nc3ccccc3s2)c(OC)c1 -7.83%
CCOc1cc(C2Sc3ccccc3NC3=C2C(=O)c2ccccc23)ccc1O (centres undefined) -55.8%
COc1ccc(Nc2cc(C(=O)NCCCN(C)Cc3ccccc3)c3ccccc3n2)cc1 -33%
CCOC(=O)c1ccc(NC(=O)CC2C(=O)N(c3ccc(F)cc3)C(=O)N2Cc2ccc(C)cc2)cc1 (centres undefined) -14.3%
CCOC(=O)c1cnc2ccc(Cl)cc2c1Nc1ccc(OCC)cc1 -32.5%
CC(=O)c1ccc(NC(=O)CSc2nc(C3CCCC3)nc3c2c(=O)n(C)c(=O)n3C)cc1 2.19%
Cc1nc(-n2nc(C)c(CCC(C)C)c2C)sc1C(=O)Nc1ccc(Br)cc1 1.48%
Cc1cccn2c(=O)cc(COc3cccc(NC(=O)COc4ccccc4)c3)nc12 -23.9%
CC(C)OCCCNC(=O)CSc1c2c(nc3ccc(Cl)cc13)CCCC2 -14.9%
COc1cccc(-c2nc3c(c(SCC(=O)Nc4cc(C)ccc4C)n2)Cc2c(CO)cnc(C)c2O3)c1 -1.5%
CCOC(=O)N1CCc2c(sc3c2c(=O)n(Cc2ccccc2)c(=O)n3Cc2ccc(C)cc2)C1 -13.1%
COc1ccc(CCNC(=O)CCCn2c(SCC(N)=O)nc3cc4c(cc3c2=O)OCO4)cc1OC -8.41%
CSc1ccc(CNC(=O)CCc2c(C)nn(-c3ccc(N4CCCC4)nn3)c2C)cc1 -19.9%
CC1CCN(c2oc(-c3ccc(COc4ccc(Cl)cc4)o3)nc2C#N)CC1 -9.77%
CCCCOc1ccccc1C(=O)Nc1onc2c1CCCC2 -12.3%
COc1ccc(CNC(=O)C2=C(C)C(=O)OC23CCN(C(C)=O)CC3)cc1 -0.119%
Cc1cc(C)c2nc(NC(=O)c3ccc(S(=O)(=O)N4CCC(C)CC4)cc3)sc2c1 7.29%
CCOc1ccccc1CNC(=O)c1ccc(Cn2c(SCc3ccccc3)nc3cccnc32)cc1 -16.8%
CC(C)OC(=O)/C(C#N)=C/c1ccc(-c2ccc(Cl)c(Cl)c2)o1 26.5%
CCc1ccc(NC(=O)Cn2c(-c3cncs3)nc3ccccc32)cc1 -14.1%
Cc1ccc(NC(=O)Cn2c(=O)n(Cc3ccc4c(c3)OCO4)c(=O)c3ccc(C(=O)NC4CCCCC4)cc32)c(C)c1 -10.4%
COc1ccc(C)cc1NC(=O)c1ccc2c(c1)nnn2C1CCCC1 5.24%
COc1ccccc1C(=O)Nc1ccc(OCc2cc(=O)n3cc(C)sc3n2)cc1 0.779%
CCn1c2ccccc2c2cc(CN3CCN(Cc4ccccc4C)CC3)ccc21 -12.3%
O=C(c1ccc2c(c1)N(Cc1cccc(Cl)c1)C(=O)c1ccccc1S2)N1CCOCC1 4.03%
Cc1ccc2[nH]c(=O)c3cc(C(=O)NCCc4ccc(Cl)cc4)sc3c2c1 -9.77%
O=C1c2oc3ccccc3c(=O)c2C(c2cccc(Cl)c2)N1c1ccccn1 (centres undefined) -7.36%
c1ccc(OCCn2c(COc3ccccc3)nc3ccccc32)cc1 6.06%
CC1=C(C(=O)Nc2ccc(C)cc2C)C(c2ccccc2F)n2nc(SCC(=O)c3ccc(C)cc3)nc2N1 (centres undefined) -2.3%
O=S(=O)(Nc1ccc(-c2ccc(N3CCCC3)nn2)cc1)c1cc(F)ccc1F 33.5%
CN1CCN(C(CNC(=O)C(=O)Nc2cccc(Cl)c2)c2ccc3c(c2)OCO3)CC1 (centres undefined) -15.2%
O=C(Cn1c(=O)c2cccn2c2cccnc21)NCc1ccccc1F -8.13%
Cc1cc2nc(-c3ccc(OCc4ccccc4)cc3)cc(C(F)(F)F)n2n1 9.83%
CCc1ccc(NC(=O)c2cnc3sc(N4CCCC4)nn3c2=O)cc1 6.92%
COc1ccccc1NC(=O)C1CCC(CNS(=O)(=O)c2ccc3c(c2)CC(C)N3C(C)=O)CC1 (centres undefined) 20.3%
O=C(Nc1ccc(S(=O)(=O)N2CCCCCC2)cc1)c1cc(=O)c2ccccc2o1 -5.47%
Cc1cc(-n2c(C)nc3ccccc3c2=O)ccc1NC(=O)c1ccc([N+](=O)[O-])cc1 23.3%
CC(C)c1ccc(OCc2cc(=O)n3c(-c4ccccc4)csc3n2)cc1 39.1%
CCOC(=O)c1ccc(NC(=O)c2nn(C)c3c2COc2ccccc2-3)cc1 -7.51%
Cc1ccc(S(=O)(=O)c2nnn3c2nc(NCc2ccccc2Cl)c2sccc23)cc1 -20.4%
COc1ccc(NC(=O)CCCN2C(=O)COc3ccc(C)cc32)cc1OC -15.8%
COc1cc(-c2cc(OC)c3c(C)oc(C)c3c(=O)c2)ccc1OC(=O)c1cccc(Cl)c1 -20.5%
CC(C)(C)OC(=O)N1CCC(c2c(C(=O)N3CCN(C(=O)c4ccco4)CC3)cnn2-c2ccccc2Cl)CC1 0.553%
COCCCNC(=O)c1ccc2c(c1)NC(=O)C(C(C)C)N2 (centres undefined) -6.27%
CCOC(=O)c1c(NC(=O)CSc2cn(CCNC(=O)c3ccccc3F)c3ccccc23)sc2c1CCCC2 -2.26%
O=C(Cn1c(=O)n(-c2ccc(Cl)cc2)c(=O)c2c3c(sc21)CCC3)c1ccccc1 20.9%
CCCCN1CCCC[C@H]1C(=O)Nc1c(C)cccc1C 5.77%
CC(C)(C)NC(=O)c1oc2ccccc2c1NC(=O)c1ccc(F)cc1 11.4%
CCc1ccc(S(=O)(=O)c2nnn3c2nc(NCCNC(C)=O)c2cc(Cl)ccc23)cc1 -4.96%
Cc1ccccc1C(=O)c1cccn1CC(=O)NCc1cccc(Cl)c1 -34.3%
COc1ccc(CCN2C(=O)CN(C3CCC(C)CC3)C(=O)C2c2ccc(OC(C)C)c(OC)c2)cc1OC (centres undefined) -12.7%
Cc1ccc(Cn2cc(CCC(=O)NCc3ccc(OC(C)C)cc3)c3ccccc32)cc1 -26.1%
CCCCNC(=O)C(CC)Sc1nc2ccccc2c(=O)n1CCc1ccc(OC)c(OC)c1 (centres undefined) -0.415%
COCCN(CCOC)c1ncnc2c1c(-c1ccccc1)cn2-c1ccc(C)c(Cl)c1 -38%
Cn1c(SCc2ccccc2F)nc2c([nH]c3ccccc32)c1=O 0.0597%
CCc1nn(CCCC(=O)NC(C)c2ccccc2)c(=O)c2cc3occc3n12 (centres undefined) -5.97%
Cc1ccc2c(c1)N(CCCC(=O)NCc1cccc(F)c1)C(=O)CO2 -19.4%
O=C(c1ccccc1)c1ccccc1 -1.35%
COc1ccccc1OCC(=O)Nc1c(C(=O)c2ccc(F)cc2)oc2ccccc12 -8.27%
CSc1ncc(C(=O)N2CCN(c3cccc(C(F)(F)F)c3)CC2)c(C)n1 35.4%
